For one assay, the system named is HSkMC. In words: cytotoxicity call (relative viability < 0.9). The following applies: 10 µM.
A further assay has as its system HepG2. As to the kind of experiment: cytotoxicity call (relative viability < 0.9). The following applies: 10 µM.
The test system of another assay is S. aureus RN4220. As to the kind of experiment: growth inhibition call (relative growth <= 0.2). The following applies: 50 µM.

This is one part of the list.

With `Cc1ccc(S(=O)(=O)N(C)C[C@H]2Oc3ccc(NC(=O)NC(C)C)cc3CC(=O)N([C@H](C)CO)C[C@@H]2C)cc1`, the cytotoxicity call in the assay on HSkMC and with HepG2 was “inactive” throughout. The growth inhibition call with S. aureus RN4220 is “inactive”.
Take `C[C@@H]1CN([C@@H](C)CO)C(=O)c2cc(NC(=O)NC3CCCCC3)ccc2O[C@@H](C)CCCCO[C@H]1CN(C)Cc1ccncc1`: the cytotoxicity call in the assay on HSkMC and in the assay on HepG2 was “inactive” in each case. For the same compound, the growth inhibition call in the assay with S. aureus RN4220 was “inactive”.
As to `Cc1cc(=O)n2nc(CC(=O)NCCCn3c(C)cccc3=O)nc2[nH]1`, the cytotoxicity call in the assay with HSkMC and with HepG2 was “inactive” throughout. Moreover, the growth inhibition call in the assay with S. aureus RN4220 was “inactive”.
Regarding `Cc1ccc(S(=O)(=O)Nc2ccc3c(c2)C(=O)N([C@@H](C)CO)C[C@@H](C)[C@@H](CN(C)C(=O)Nc2ccc(F)cc2)OCCCC[C@H](C)O3)cc1`, the cytotoxicity call with HSkMC and with HepG2 was “inactive” throughout. For the same compound, the growth inhibition call with S. aureus RN4220 was “inactive”.
As for `Cc1noc(C)c1NC(=O)Nc1ccc2c(c1)CC(=O)N([C@H](C)CO)C[C@@H](C)[C@@H](CN(C)S(C)(=O)=O)O2`, the cytotoxicity call in the assay with HSkMC and in the assay on HepG2 was “inactive” each time. For the same compound, in the assay on S. aureus RN4220, the growth inhibition call was “inactive”.
Regarding `C[C@H]1CCCCO[C@@H](CN(C)C(=O)c2ccccc2)[C@@H](C)CN([C@@H](C)CO)C(=O)c2cc(NC(=O)Nc3ccc(F)cc3)ccc2O1`, the cytotoxicity call in the assay with HSkMC and with HepG2 was “inactive” in each case. Further, the growth inhibition call in the assay on S. aureus RN4220 was “inactive”.
Regarding `CC(C)[C@H](NC(=O)[C@H](CC(=O)O)NC(=O)[C@H](CCCCN)NC(=O)[C@@H](N)CCCNC(=N)N)C(=O)N[C@@H](Cc1ccc(O)cc1)C(=O)O`, the cytotoxicity call with HSkMC and in the assay with HepG2 was “inactive” in each case. Besides, the growth inhibition call in the assay with S. aureus RN4220 was “inactive”.
Take `O=C(NCCCN1CCOCC1)[C@H]1[C@H](CO)[C@H]2Cn3c(ccc(C4=CCCCC4)c3=O)[C@@H]1N2`: the cytotoxicity call in the assay on HSkMC and in the assay on HepG2 was “inactive” in each case. In the assay on S. aureus RN4220, the growth inhibition call is “inactive”.
As for `Cc1cc(C(=O)Nc2cccc3c2O[C@@H](CN(C)C(=O)NC(C)C)[C@H](C)CN([C@@H](C)CO)C3=O)n(C)n1`, the cytotoxicity call with HSkMC and in the assay with HepG2 was “inactive” throughout. For the same compound, the growth inhibition call in the assay on S. aureus RN4220 is “inactive”.
On to `C[C@H]1CN([C@@H](C)CO)C(=O)c2cc(NC(=O)Nc3cccc4ccccc34)ccc2O[C@@H]1CN(C)S(=O)(=O)c1ccc(Cl)cc1`, for which the cytotoxicity call in the assay on HSkMC and in the assay on HepG2 was “inactive” each time. The growth inhibition call in the assay with S. aureus RN4220 is “inactive”.
For the compound `C[C@@H]1CCCCO[C@@H](CN(C)S(=O)(=O)c2ccc(F)cc2)[C@@H](C)CN([C@H](C)CO)C(=O)c2cc(NC(=O)Cc3ccccc3)ccc2O1`, the cytotoxicity call in the assay on HSkMC and in the assay on HepG2 was “inactive” throughout. For the same compound, the growth inhibition call with S. aureus RN4220 was “inactive”.
On to `C[C@@H]1COC(=O)[C@H](Cc2ccc(F)cc2)CC=CC[C@@H](CC(=O)N(CCO)Cc2ccccc2)C(=O)N1`, for which the cytotoxicity call in the assay with HSkMC and with HepG2 was “inactive” in each case. Also, the growth inhibition call with S. aureus RN4220 is “inactive”.
For `C[C@H]1CN([C@@H](C)CO)C(=O)Cc2cc(NC(=O)CCN3CCOCC3)ccc2O[C@@H]1CN(C)S(=O)(=O)c1cccs1`, the cytotoxicity call with HSkMC and in the assay with HepG2 was “inactive” each time. In addition, the growth inhibition call in the assay with S. aureus RN4220 is “inactive”.
As to `COc1ccc(N2C[C@H](C(N)=O)CC2=O)cc1`, the cytotoxicity call in the assay on HSkMC and in the assay with HepG2 was “inactive” in each case. In addition, the growth inhibition call in the assay with S. aureus RN4220 was “inactive”.
Consider `C[C@H](O)C#Cc1ccc2c(c1)O[C@H](CN(C)C(=O)c1ccccc1)[C@@H](C)CN([C@@H](C)CO)S2(=O)=O`, for which the cytotoxicity call in the assay on HSkMC and with HepG2 was “inactive” each time. Moreover, in the assay on S. aureus RN4220, the growth inhibition call was “inactive”.
With `COc1ccc(S(=O)(=O)Nc2ccc3c(c2)C(=O)N([C@@H](C)CO)C[C@H](C)[C@H](CN(C)CC2CCCCC2)OCCCC[C@@H](C)O3)cc1`, the cytotoxicity call with HSkMC and with HepG2 was “inactive” in each case. In the assay with S. aureus RN4220, the growth inhibition call was “inactive”.
Consider `O=C(NCc1ccccc1)[C@@H]1c2ccccc2C(=O)N(CC23CC4CC(CC(C4)C2)C3)[C@H]1c1ccc(CO)cc1`, for which the cytotoxicity call in the assay on HSkMC and with HepG2 was “inactive” throughout. Further, the growth inhibition call with S. aureus RN4220 was “inactive”.
In the case of `C[C@H](CO)N1C[C@H](C)[C@H](CN(C)Cc2ccc(Oc3ccccc3)cc2)Oc2c(NC(=O)c3ccncc3)cccc2C1=O`, the cytotoxicity call with HSkMC and with HepG2 was “inactive” throughout. The growth inhibition call in the assay with S. aureus RN4220 is “inactive”.
Regarding `COc1ccc(S(=O)(=O)N(C)C[C@@H]2Oc3ccc(NS(=O)(=O)c4cccs4)cc3C(=O)N([C@@H](C)CO)C[C@@H]2C)cc1`, in the assay with HSkMC, the cytotoxicity call was “inactive”. For the same compound, the cytotoxicity call in the assay on HepG2 is “active”. Also, the growth inhibition call in the assay with S. aureus RN4220 is “inactive”.
In the case of `O=C(/C=N/O)Nc1ccccc1C(=O)O`, the cytotoxicity call with HSkMC and in the assay on HepG2 was “inactive” each time. The growth inhibition call in the assay with S. aureus RN4220 is “inactive”.
On to `COc1ccc(S(=O)(=O)N(C)C[C@H]2Oc3ncc(-c4ccncc4)cc3C(=O)N([C@H](C)CO)C[C@H]2C)cc1`, for which the cytotoxicity call with HSkMC and in the assay with HepG2 was “inactive” throughout. In addition, the growth inhibition call with S. aureus RN4220 is “inactive”.
On to `C[C@@H]1CN([C@H](C)CO)C(=O)c2cc(NC(=O)Cc3ccccc3)ccc2O[C@H]1CN(C)C(=O)Nc1cccc2ccccc12`, for which the cytotoxicity call in the assay with HSkMC and in the assay on HepG2 was “inactive” throughout. For the same compound, the growth inhibition call with S. aureus RN4220 was “inactive”.
Turning to `O=C1C[C@]2(c3ccc([N+](=O)[O-])cc3)C(=O)N(CCN3CCOCC3)c3cc(CO)ccc3[C@H]2N1C1CCCCC1`, the cytotoxicity call in the assay on HSkMC (human skeletal muscle cells) and in the assay with HepG2 was “inactive” each time. In the assay with S. aureus RN4220, the growth inhibition call was “inactive”.
For `COc1ccc(S(=O)(=O)N(C)C[C@@H]2Oc3c(NC(=O)C4CCOCC4)cccc3C(=O)N([C@@H](C)CO)C[C@@H]2C)cc1`, the cytotoxicity call in the assay with HSkMC and with HepG2 was “inactive” in each case. Also, the growth inhibition call in the assay on S. aureus RN4220 was “inactive”.

Source of the values: the antibiotic and cytotoxicity screens of Wong et al. (2023).
